# Results reported in the supplement of paper PMC11417369.
# ± gives the standard deviation of the averaged measurements. This is one part of the list.
# System: PfAP2-I AP2 domain 3 (GST-tagged)
# Test: gcPBM binding intensity (ln(normalized median fluorescence intensity)); higher = stronger DNA binding
# Summary of the method: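 Binding intensity values are the highest Masliner-normalised natural-log median intensity among replicate spots of either probe orientation. The binding step lasted 1 h in 1× PBS with 1% milk, 0.2 mg/ml BSA, 0.5% salmon testes DNA and 0.03% Triton X-100, using GST-tagged P. falciparum DNA-binding domains expressed in E. coli on an Agilent 4 × 180k array of primer-extended double-stranded 36-bp intergenic genomic probes plus negative controls. Alexa488 anti-GST antibody and a 488 nm scan detected bound protein.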
row,Sequence,gcPBM binding intensity (ln)
1,TATAATATAAAATATGCACACATTGGAATGGGAGAA [CACACA_site3746],8.76 ± 0.63
2,AAAAAAAAAAAAAAGGTGCAAATAAATTAACCTTAT,11.4 ± 0.44
3,AAAAAAAACGCACATACACACACACCCATATATATA [CACACA_site9118],8.51 ± 0.55
4,AAATGTTAAAATGACAGTACATATATAAAAAAAAAA [XGTACX_site3936],8.04 ± 0.75
5,TTTTATTTTTTCCGACGTACATCCATTATATATAAT [XGTACX_site4469],8.15 ± 0.68
6,CTAGGAAATTATATGGGTACTCATATTCATAAAAAA [XGTACX_site1846],7.71 ± 0.5
7,AAATATTTGGAGAAATGTACATATTATAAATATATT [XGTACX_site6885],7.96 ± 0.54
8,GTCGCCAAAAGGTGTACACATAATGCATTATCATAA [CACACA_site6112],8.79 ± 0.42
9,TAAAAAAAATAGCATACACACATATATACATATATA [CACACA_site658],7.42 ± 0.54
10,TGATAACCTAATAATACACACACATGAATATATATA [CACACA_site8226],7.97 ± 0.79
11,ATATTTAGGATTATCTGTACATAATATGTTTAATTA [XGTACX_site3426],7.74 ± 0.46
12,ATTAAAAAATTATTCACACAAAATAAAAAAATGAAA [CACACA_site4918],7.66 ± 0.51
13,TACACATAATATAATGCATGTGTGATGTATGTTTAA [TGCATGCA_site697],8.09 ± 0.66
14,AAAATTATTTTTATGTGTACTTATTTATTATTTATA [XGTACX_site6665],7.88 ± 0.4
15,TTGTATTCCTTTTACAACTACCATGAAGAGAATTTT [CACACA_negctrl_site1286],7.61 ± 0.5
16,ATAGGACATGTATCCAGTACATATTTAAAAAAAATA [XGTACX_site88],7.51 ± 0.45
17,GCATATATCAAATATCGTACATTTTTTAAATTAAAA [XGTACX_site3994],7.71 ± 0.39
18,ATAAAATCAAAATATACACACAAGGGGGAAAATCAA [CACACA_site2809],8.37 ± 0.14
19,TTTGTAAGTCTTTGTTGTACTCAATAGAATGAAGAA [XGTACX_site8930],8.1 ± 0.3
20,TTTTCTTTTTTTTATTGTACTTATAAAAATAAATAA [XGTACX_site3498],7.78 ± 0.18
21,TACTTATGTGCATACCTACACACTTACATATATATA [CACACA_site2975],8.59 ± 0.35
22,GATGATGTTTATTTGTGTACATATTAATACTTAATA [XGTACX_site1902],8.09 ± 0.28

row,Sequence,gcPBM binding intensity (ln)
1,AATTATTTACCCTATACACACAAAACCCACTAAAAA [CACACA_site4801],8.78 ± 0.45
2,AAGAACAGAACGTACACACACATATATATATATATA [CACACA_site3457],9.33 ± 0.49
3,AAAAAAAGAATGTGAACACACACATTGAATATAATT [CACACA_site8341],7.65 ± 0.81
4,AATCATATGAAAAATACATGCGCATGGATACCTTTA [TGCATGCA_site224],7.79 ± 0.8
5,TATAAATAAATACATACACACACATACATATATATA [CACACA_site9024],8.04 ± 0.64
6,AATAATAATAGTAATATGTACATATATATATATATA [TGCATGCA_negctrl_site542],9.22 ± 0.51
7,TATAAGCAAAAACACACACACATATATATATATATA [CACACA_site3804],9.4 ± 0.35
8,TTTTTATTCGATGATCAAATAGGTATATACAAAAAA [CACACA_negctrl_site1813],8.34 ± 0.64
9,TTATTTAAAAAAAAGTGTACCCATATATTATAAATC [XGTACX_site8374],7.84 ± 0.42
10,TAATATTATAGATAAACACACATACACATGTAAATA [CACACA_site7049],7.71 ± 0.72
11,AAATGAAATTTGTATACACACAAATATATATATATA [CACACA_site836],9.16 ± 0.19
12,GCATCCCTTTTTATGTGTACATACAAAGGCAATTAC [XGTACX_site6977],8.24 ± 0.36
13,TATTGTTTTAAAGAGACATGCAATATATATTATTCC [TGCATGCA_site752],7.77 ± 0.75
14,AAAATATAAATCTAAGCATGCAAAAAAAATTTATAA [TGCATGCA_site1008],7.58 ± 0.88
15,AAAGACGCAAAATTGGTGCGCTGCTTTTAGCATTTT,9.03 ± 0.18
16,AAAAAAAAAAAGTACACACATACATATAAATATATA [CACACA_site1809],8.05 ± 0.2
17,ATTTATATCCTTAAACGTACATTGTATTGTATTTTA [XGTACX_site6080],7.86 ± 0.52
18,ACAGAATATTTAATTCAACACACATACATATTTATT [CACACA_site8734],7.61 ± 0.52
19,AATAATCATGATCAAAGTACTTATGAATACCAAAAA [XGTACX_site2572],7.87 ± 0.78
20,TGCATGCATTATCATAGTACATATAATGTTGTATAA [XGTACX_site2775],8 ± 0.58
21,TAATCTTTCGTACATGTACACACAGAAAAAAAAAAA [CACACA_site8798],8.09 ± 0.71
22,TATTAAGTATTTTACGTACACACTTATAAATGTACA [CACACA_site3885],7.96 ± 0.29

row,Sequence,gcPBM binding intensity (ln)
1,ATTATTAAGTTTCACAAGAACATTGTTAACAATTTT [CACACA_negctrl_site1128],7.5 ± 0.64
2,TATAAGGTGTCCTATACACACTCCAATAGATATATA [CACACA_site7066],7.87 ± 0.39
3,AATTTATATTTTCGTAGTACGTATTTTATTCTTTTG [XGTACX_site4162],7.83 ± 0.47
4,ATTACATGCAATATATGTACGTAATATATATATATA [XGTACX_site2300],9.075 ± 0.035
5,CTGAACCCGTTATGGTGTACATAAAATAAGACACAG [XGTACX_site3484],8.46 ± 0.38
6,TTATTACATGTTACTTAACACACATCTGGTGAAATA [CACACA_site7939],7.99 ± 0.48
7,AAAATATAGTAATATATATATGTATATTATTTGTGG [CACACA_negctrl_site1590],7.47 ± 0.39
8,GGAAAGACAGTTCACAGTACCCAGTAAACTCTACGG [XGTACX_site2557],7.29 ± 0.75
9,TTTATATATGTAAATGCACACATATGTGTATATACT [CACACA_site8493],9.72 ± 0.35
10,ATATATAATATTTTTATTTTTATTTTTTTTTTATGA [TGCATGCA_negctrl_site577],7.37 ± 0.49
11,ATTAAGTTCAAATGTAGTACGTGTAAAAAAAAAAAA [XGTACX_site1578],8.28 ± 0.66
12,TACCATGTTCAAATTACACACATATAATGTAATATA [CACACA_site5150],7.66 ± 0.35
13,TATAGGTATATATTATGTACTTATAATTATATAGAT [XGTACX_site1912],7.82 ± 0.34
14,AAAATAAATAAATAAATAAATATATATATATATATA [XGTACX_negctrl_site345],9.32 ± 0.31
15,GATTATATTATATATTAAATATAAATATGTATTATA [TGCATGCA_negctrl_site66],7.42 ± 0.23
16,ATGTTGTGTATATATACACACATACATATATATATA [CACACA_site8461],9.3 ± 0.46
17,GAAATATTTAGACACACACACAAACATATAAATATA [CACACA_site6980],7.92 ± 0.3
18,AAAAAAAATTAAAATAAATTAAAAAGTAATTATATA [GTGCAC_negctrl_site615],7.14 ± 0.38
19,AATGAGAAGGACTGCACACTAAAATGGAAGGAGAAA [CACACA_site1575],8.28 ± 0.79
20,AATGGAAATGTAAAATGTACAGGACGCACACACATA [XGTACX_site7788],8 ± 0.35
21,GAAAAAATTTTATGGTGTACTTTATTTATTTATATA [XGTACX_site6323],8.06 ± 0.28
22,TTTTTATTATTCTTAAGGATATAACAAAAAAGAAAA [XGTACX_negctrl_site584],7.52 ± 0.37

row,Sequence,gcPBM binding intensity (ln)
1,ATTAATATTATTAGAAGTACTAATAGTAGTATAACT [XGTACX_site1325],7.72 ± 0.59
2,TAAACGTTAGTATGTGTGCACATTAGTAATTTAAAA,9.65 ± 0.3
3,TTCTAAAAAAATAAAATTATCAAGGTTTTTAAACGT [CACACA_negctrl_site308],7.55 ± 0.6
4,TCAAAGCACACATACACACACATATAGATTTATATA [CACACA_site6272],8.41 ± 0.18
5,TAAATAAATATATATTCACACACAAACATATATATA [CACACA_site9332],7.78 ± 0.68
6,TCTTCATAAAAATAAAGTACATTATATATATAAATA [XGTACX_site3775],7.51 ± 0.4
7,TTGTATATATATGGAAAAATATATATATATATATAT [GTGCAC_negctrl_site591],9.47 ± 0.74
8,TTTATTTATAGACACACACACAAAAAAAAAAAAAAA [CACACA_site7280],8.15 ± 0.7
9,TTTTTTTTTTTTTTTATAAAAGATAATTTTTTTTTA [CACACA_negctrl_site133],8.08 ± 0.49
10,CATTTATATTATAAATGTACAAAGTTCGTTTGTTCC [XGTACX_site1305],7.57 ± 0.61
11,TATAAATTTAAAATGACACACACTAATATTATTTAA [CACACA_site8334],7.62 ± 0.6
12,TGTCTTTAAATTTCTCAACACACAGTTATAAAAAAT [CACACA_site8930],7.81 ± 0.44
13,ATACGATTGAAACATTGTACATGAATATAAAAAAAT [XGTACX_site5704],7.92 ± 0.57
14,AGTATAATAATATTTACACACGCATATGTTATATAT [CACACA_site1476],8.15 ± 0.83
15,AAAACGCTACATAATTGTACATGTAGAAATAAAAGC [XGTACX_site2895],8.24 ± 0.47
16,TCTAAAAATAAGAACACACACATATAAGCATATAAA [CACACA_site2274],7.72 ± 0.61
17,TACTGCCTTCCATACCCACACACTTCCCATATATTT [CACACA_site2705],8.44 ± 0.69
18,ATTTAAAAAAAAAAAACACACATGTGAATAGAAAAG [CACACA_site3323],7.84 ± 0.69
19,AAAAATTTGGCATACACACACACACCCACACCCACA [CACACA_site587],8.27 ± 0.085
20,TATGTATTTAAATTAACACACATATGTGGTTAATAG [CACACA_site5697],7.76 ± 0.43
21,ATATATTATATATATTGTACATGTAAAATTTTAAAA [XGTACX_site7197],7.92 ± 0.2
22,ACATATATATATATATATATATATATATCATTATGT [CACACA_negctrl_site724],8.5 ± 0.23
